# In the supplement of paper PMC8728848:
# Some of the results follow.
# B1: MGL1 (Mus musculus), P49300 (protein)
# chain: MIYENLQNSRIEEKTQEPGKAPSQSFLWRILSWTHLLLFSLGLSLLLLVVVSVIGSQNSQLRRDLGTLRATLDNTTSKIKAEFQSLDSRADSFEKGISSLKVDVEDHRQELQAGRDLSQKVTSLESTVEKREQALKTDLSDLTDHVQQLRKDLKALTCQLANLKNNGSEVACCPLHWTEHEGSCYWFSESEKSWPEADKYCRLENSHLVVVNSLEEQNFLQNRLANVVSWIGLTDQNGPWRWVDGTDFEKGFKNWAPLQPDNWFGHGLGGGEDCAHITTGGPWNDDVCQRTFRWICEMKLAKES
# Assays:
# Assay in all cases: glycan array binding signal (z-score within array); higher = stronger binding
# Conditions in all cases: glycan notation: IUPAC condensed, linker removed
# [1] = molecular target: Fuc(a1-2)Gal(b1-4)GlcNAc(b1-3)Gal(b1-4)GlcNAc
# How it was run: (§1)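 Arrays were curated from the Consortium for Functional Glycomics database, 3228 in total, and kept only where the protein sequence was available. Binding is expressed as a within-array Z-score. This score was averaged across arrays of the same protein sequence at different concentrations or buffers and across linkers, and negative values can be read as non-binding.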
# [2] = molecular target: Fuc(a1-2)Gal(b1-4)GlcNAc(b1-3)Gal(b1-4)GlcNAc(b1-2)Man(a1-3)[Fuc(a1-2)Gal(b1-4)GlcNAc(b1-3)Gal(b1-4)GlcNAc(b1-2)Man(a1-6)]Man(b1-4)GlcNAc(b1-4)GlcNAc
# How it was run: as §1
# [3] = molecular target: Fuc(a1-2)Gal(b1-4)GlcNAc(b1-3)Gal(b1-4)GlcNAc(b1-3)Gal(b1-4)GlcNAc
# How it was run: as §1
# [4] = molecular target: Fuc(a1-2)Gal(b1-4)GlcNAc(b1-3)GalNAc
# How it was run: as §1
# [5] = molecular target: Fuc(a1-2)Gal(b1-4)GlcNAc(b1-3)[Fuc(a1-2)Gal(b1-4)GlcNAc(b1-6)]GalNAc
# How it was run: as §1
# [6] = molecular target: Fuc(a1-2)Gal(b1-4)GlcNAc(b1-3)[Fuc(a1-3)[Gal(b1-4)]GlcNAc(b1-6)]Gal(b1-4)Glc
# How it was run: as §1
# [7] = molecular target: Fuc(a1-2)Gal(b1-4)GlcNAc(b1-6)GalNAc
# How it was run: as §1
# [8] = molecular target: Fuc(a1-2)Gal(b1-4)GlcNAc6S
# How it was run: as §1
# [9] = molecular target: Fuc(a1-2)Gal(b1-4)[Fuc(a1-3)]GalNAc(b1-3)Gal(b1-4)[Fuc(a1-3)]GlcNAc
# How it was run: as §1
# [10] = molecular target: Fuc(a1-2)Gal(b1-4)[Fuc(a1-3)]GalNAc(b1-3)Gal(b1-4)[Fuc(a1-3)]GlcNAc(b1-3)Gal(b1-4)[Fuc(a1-3)]GalNAc
# How it was run: as §1
# [11] = molecular target: Fuc(a1-2)Gal(b1-4)[Fuc(a1-3)]GlcNAc
# How it was run: as §1
# [12] = molecular target: Fuc(a1-2)Gal(b1-4)[Fuc(a1-3)]GlcNAc(b1-2)Man(a1-3)[Fuc(a1-2)Gal(b1-4)[Fuc(a1-3)]GlcNAc(b1-2)Man(a1-6)]Man(b1-4)GlcNAc(b1-4)[Fuc(a1-6)]GlcNAc
# How it was run: as §1
# [13] = molecular target: Fuc(a1-2)Gal(b1-4)[Fuc(a1-3)]GlcNAc(b1-2)[Fuc(a1-2)Gal(b1-4)[Fuc(a1-3)]GlcNAc(b1-4)]Man(a1-3)[Fuc(a1-2)Gal(b1-4)[Fuc(a1-3)]GlcNAc(b1-2)Man(a1-6)]Man(b1-4)GlcNAc(b1-4)GlcNAc
# How it was run: as §1
# [14] = molecular target: Fuc(a1-2)Gal(b1-4)[Fuc(a1-3)]GlcNAc(b1-3)Gal(b1-4)[Fuc(a1-3)]GlcNAc
# How it was run: as §1
# [15] = molecular target: Fuc(a1-2)Gal(b1-4)[Fuc(a1-3)]GlcNAc(b1-3)Gal(b1-4)[Fuc(a1-3)]GlcNAc(b1-3)Gal(b1-4)[Fuc(a1-3)]GlcNAc
# How it was run: as §1
# [16] = molecular target: Fuc(a1-2)Gal(b1-4)[Fuc(a1-3)]GlcNAc(b1-3)GalNAc
# How it was run: as §1
# [17] = molecular target: Fuc(a1-2)Gal(b1-4)[Fuc(a1-3)]GlcNAc(b1-3)[Neu5Ac(a2-6)Gal(b1-4)GlcNAc(b1-6)]Gal(b1-4)Glc
# How it was run: as §1
# [18] = molecular target: Fuc(a1-2)Gal3S(b1-4)GlcNAc
# How it was run: as §1
# [19] = molecular target: Fuc(a1-2)Gal6S(b1-3)GlcNAc
# How it was run: as §1
# [20] = molecular target: Fuc(a1-2)Gal6S(b1-3)GlcNAc6S
# How it was run: as §1
# Fuc(a1-2)Gal6S(b1-4)Glc = molecular target: Fuc(a1-2)Gal6S(b1-4)Glc
# How it was run: as §1
# [21] = molecular target: Fuc(a1-2)Gal6S(b1-4)Glc6S
# How it was run: as §1
# [22] = molecular target: Fuc(a1-2)Gal6S(b1-4)GlcNAc
# How it was run: as §1
# Fuc(a1-2)GlcNAc = molecular target: Fuc(a1-2)GlcNAc
# How it was run: as §1
# Fuc(a1-2)[Gal(a1-3)]Gal = molecular target: Fuc(a1-2)[Gal(a1-3)]Gal
# How it was run: as §1
# [23] = molecular target: Fuc(a1-2)[Gal(a1-3)]Gal(b1-3)GalNAc
# How it was run: as §1
# [24] = molecular target: Fuc(a1-2)[Gal(a1-3)]Gal(b1-3)GalNAc(b1-3)Gal(a1-4)Gal(b1-4)Glc
# How it was run: as §1
# [25] = molecular target: Fuc(a1-2)[Gal(a1-3)]Gal(b1-3)GlcNAc
# How it was run: as §1
# [26] = molecular target: Fuc(a1-2)[Gal(a1-3)]Gal(b1-3)GlcNAc(b1-2)Man(a1-3)[Fuc(a1-2)[Gal(a1-3)]Gal(b1-3)GlcNAc(b1-2)Man(a1-6)]Man(b1-4)GlcNAc(b1-4)GlcNAc
# How it was run: as §1
# [27] = molecular target: Fuc(a1-2)[Gal(a1-3)]Gal(b1-3)GlcNAc(b1-2)Man(a1-3)[Fuc(a1-2)[Gal(a1-3)]Gal(b1-3)GlcNAc(b1-2)Man(a1-6)]Man(b1-4)GlcNAc(b1-4)[Fuc(a1-6)]GlcNAc
# How it was run: as §1
binder,measurement,setting,value
B1,glycan array binding signal (z-score),[1],-0.549
same,glycan array binding signal (z-score),[2],-0.459
same,glycan array binding signal (z-score),[3],-0.616
same,glycan array binding signal (z-score),[4],-0.402
same,glycan array binding signal (z-score),[5],-0.581
same,glycan array binding signal (z-score),[6],0.16
same,glycan array binding signal (z-score),[7],0.694
same,glycan array binding signal (z-score),[8],-0.01
same,glycan array binding signal (z-score),[9],-0.115
same,glycan array binding signal (z-score),[10],-0.14
same,glycan array binding signal (z-score),[11],-0.346
same,glycan array binding signal (z-score),[12],0.133
same,glycan array binding signal (z-score),[13],0.824
same,glycan array binding signal (z-score),[14],-0.019
same,glycan array binding signal (z-score),[15],-0.371
same,glycan array binding signal (z-score),[16],-0.16
same,glycan array binding signal (z-score),[17],-0.672
same,glycan array binding signal (z-score),[18],0.516
same,glycan array binding signal (z-score),[19],-0.41
same,glycan array binding signal (z-score),[20],-0.688
same,glycan array binding signal (z-score),Fuc(a1-2)Gal6S(b1-4)Glc,-0.288
same,glycan array binding signal (z-score),[21],0.081
same,glycan array binding signal (z-score),[22],-0.143
same,glycan array binding signal (z-score),Fuc(a1-2)GlcNAc,-0.156
same,glycan array binding signal (z-score),Fuc(a1-2)[Gal(a1-3)]Gal,0.307
same,glycan array binding signal (z-score),[23],-0.265
same,glycan array binding signal (z-score),[24],-0.015
same,glycan array binding signal (z-score),[25],0.446
same,glycan array binding signal (z-score),[26],-0.706
same,glycan array binding signal (z-score),[27],-0.411
